{"source": "patent US20210221891A1", "about": "(NANJING LEGEND BIOTECH, published 2021)", "binders": {"B1": {"name": "AS06730 HCAb (Fc fusion)", "heavy": "QVQLVESGGGLVQAGGSLRLSCAASGRTFITYAIGWFRQAPGKEREFVSAINWSGSMTSYADSVKGRFTISRDNAKNTVYLQMNGLKPEDTAVYYCAAHRGAIAPIAQSVYTNWGQGTQVTVSS[human IgG1 Fc not written out]", "notes": "heavy chain-only antibody: sdAb fused with human Fc region; also called AS0730 HCAb"}, "B2": {"name": "AS06791 HCAb (Fc fusion)", "heavy": "B1 heavy with S49T, M83I, P88S, I106M, A107T, T112D, N113Y"}, "B3": {"name": "AS06703 HCAb (Fc fusion)", "heavy": "EVQLVESGGGLVRAGGSLRLSCAASGRTFITYAIGWFRQAPGKEREFVTAINWSGSMTSYADSVKGRFTISRDNNKNTVYLQMNSLKPEDTALYYCAAHLGAIAPMSQSVYDYWGQGTQVTVSS[human IgG1 Fc not written out]", "notes": "heavy chain-only antibody: sdAb fused with human Fc region"}, "B4": {"name": "AS06628 HCAb (Fc fusion)", "heavy": "B3 heavy with E1Q, R13Q, T78M, L93V, L100R, S107T", "notes": "as for B3"}, "B5": {"name": "AS11948 HCAb (Fc fusion)", "heavy": "EVQLVESGGGLVQAGDSLRLSCVASGRTFVTYGMGWFRQAPGKEREFVAAINWSGSMTSYGDSVKGRFAISRDNAKNTVYLQMNSLKPEDTAVYYCAAALGAVVYTTREPYTYWGRGTQVTVSS[human IgG1 Fc not written out]"}, "B6": {"name": "AS06686 HCAb (Fc fusion)", "heavy": "AVQLVESGGGLVQAGDSLRLACAASGRTFLTYALGWFRQAPGKEREFVAGVSWSGSSTKYADSVKGRFTISRDNAKNTVYMQMNSLKPEDTAVYYCAAQISAIVPISAHEYQYWGQGTQVTVSS[human IgG1 Fc not written out]", "notes": "as for B3"}, "B7": {"name": "AS11947 HCAb (Fc fusion)", "heavy": "DVQLVESGGGLVQAGDSLRLTCSASGRTFISYAVGWFRQAPGTEREFVAGIRWNGISTDYTDSVKGRFTISRDNAKNTVYLQMNSLKPEDTAIYYCAAHRTIATIPNKYEYDHWGQGTQVTVSS[human IgG1 Fc not written out]", "notes": "as for B3"}, "B8": {"name": "AS06778 HCAb (Fc fusion)", "heavy": "QVQLVESGGGLVQAGGSLKLSCAASGRTFITYAMGWFRQAPGKERELVAAISWSGSSTYSADSVKGRFTISRDNAKNTVYLQMNSLKPEDTAVYYCAAEVSARTGEHLPKLMGDYWGQGTQVTVSS[human IgG1 Fc not written out]", "notes": "as for B3"}, "B9": {"name": "AS06750 HCAb (Fc fusion)", "heavy": "AVQLVESGGGLVQAGDSLRLSCTASGRTFLTYAVGWFRQAPGTEREFVAGIRWSGGYTDYADSVKGRFTISRDNAKNTVYLQMNSLKPEDTAVYYCAAHRTIATIPEKYEYEYWGQGTQVTVSS[human IgG1 Fc not written out]", "notes": "as for B3"}, "B10": {"name": "AS06618 HCAb (Fc fusion)", "heavy": "B9 heavy with A1E, G10R, Q13R, T23A, T31S, D62E, S63A", "notes": "as for B3"}, "B11": {"name": "AS06682 HCAb (Fc fusion)", "heavy": "B9 heavy with T31S, G56E, Y57H, D62A, R100T, E107K", "notes": "as for B3"}, "B12": {"name": "AS06775 HCAb (Fc fusion)", "heavy": "B9 heavy with A1Q, T23A, Y32L, G56S, Y57G, R100T, Q116R", "notes": "heavy chain-only antibody: sdAb fused with human Fc region; also called AS0775"}, "B13": {"name": "AS06617 HCAb (Fc fusion)", "heavy": "DVQLVESGGGLVQAGDSLRLSCAASGRTFISYAVGWFRQAPGSEREFVAGIRWNGIHTDYADSVKGRFTISRDNAKNTVTLEMTSLKPEDTAVYYCAAHRTIATIPEKYEYEYWGQGTQVTVSS[human IgG1 Fc not written out]", "notes": "as for B3"}, "B14": {"name": "AS12003 HCAb (Fc fusion)", "heavy": "B9 heavy with A1E, T23A, T31S, Y57S, I105V, E107N, E112D, Y113T", "notes": "as for B3"}, "B15": {"name": "AS06730SVH12 HCAb (Fc fusion)", "heavy": "B1 heavy with Q1E, A14P, E44G, N52S, V79L, G85S, K87R, Q119L"}, "B16": {"name": "AS06730S HCAb (Fc fusion)", "heavy": "B1 heavy with N52S"}, "B17": {"name": "AS11948SVH12 HCAb (Fc fusion)", "heavy": "EVQLVESGGGLVQPGGSLRLSCAASGRTFVTYGMGWFRQAPGKGREFVSAISWSGSMTSYGDSVKGRFTISRDNAKNTLYLQMNSLRPEDTAVYYCAAALGAVVYTTREPYTYWGQGTLVTVSS[human IgG1 Fc not written out]"}, "B18": {"name": "AS11948SVH12M8 HCAb (Fc fusion)", "heavy": "B17 heavy with M57I"}, "B19": {"name": "AS11948S HCAb (Fc fusion)", "heavy": "B5 heavy with N52S"}, "B20": {"name": "AS06617VH11 HCAb (Fc fusion)", "heavy": "EVQLVESGGGLVQPGGSLRLSCAASGRTFISYAVGWFRQAPGKGREFVSGIRWSGIHTDYADSVKGRFTISRDNAKNTLYLQMNSLRPEDTAVYYCAAHRTIATIPEKYEYEYWGQGTLVTVSS[human IgG1 Fc not written out]"}, "B21": {"name": "AS06775VH11 HCAb (Fc fusion)", "heavy": "B20 heavy with I30L, S31T, Y32L, I56S, H57G, R100T"}, "B22": {"name": "AS06775VH4 HCAb (Fc fusion)", "heavy": "B20 heavy with I30L, S31T, R45L, I56G, H57Y, A75S, P88A"}, "B23": {"name": "AS06750VH11 HCAb (Fc fusion)", "heavy": "B20 heavy with I30L, S31T, I56G, H57Y"}, "B24": {"name": "AS06750VH2 HCAb (Fc fusion)", "heavy": "B20 heavy with I30L, S31T, R45L, F47W, S49A, I56G, H57Y, A75S, L79V, P88A"}}, "note": "Numbering of substitutions follows the chain as printed."}
{"target": "T1, human PD-L1 expressed on CHO-K1 cells (human, UniProt Q9NZQ7)", "assay": "cell-based or functional assay", "units": {"EC50 of PD-L1- based blockade assay for HCAbs": "nM"}}
{"binder": "B1", "EC50 of PD-L1- based blockade assay for HCAbs": 6.79}
{"binder": "B2", "EC50 of PD-L1- based blockade assay for HCAbs": 5.82}
{"binder": "B3", "EC50 of PD-L1- based blockade assay for HCAbs": 5.59}
{"binder": "B4", "EC50 of PD-L1- based blockade assay for HCAbs": 5.88}
{"binder": "B5", "EC50 of PD-L1- based blockade assay for HCAbs": 5.8}
{"binder": "B6", "EC50 of PD-L1- based blockade assay for HCAbs": 7.37}
{"binder": "B7", "EC50 of PD-L1- based blockade assay for HCAbs": 7.55}
{"binder": "B8", "EC50 of PD-L1- based blockade assay for HCAbs": 5.54}
{"binder": "B9", "EC50 of PD-L1- based blockade assay for HCAbs": 9.98}
{"binder": "B10", "EC50 of PD-L1- based blockade assay for HCAbs": 6.45}
{"binder": "B11", "EC50 of PD-L1- based blockade assay for HCAbs": 6.66}
{"binder": "B12", "EC50 of PD-L1- based blockade assay for HCAbs": 5.8}
{"binder": "B13", "EC50 of PD-L1- based blockade assay for HCAbs": 6.2}
{"binder": "B14", "EC50 of PD-L1- based blockade assay for HCAbs": 9.34}
{"target": "T1, human PD-L1 expressed on CHO-K1 cells", "T1 sequence (Q9NZQ7 19-290)": "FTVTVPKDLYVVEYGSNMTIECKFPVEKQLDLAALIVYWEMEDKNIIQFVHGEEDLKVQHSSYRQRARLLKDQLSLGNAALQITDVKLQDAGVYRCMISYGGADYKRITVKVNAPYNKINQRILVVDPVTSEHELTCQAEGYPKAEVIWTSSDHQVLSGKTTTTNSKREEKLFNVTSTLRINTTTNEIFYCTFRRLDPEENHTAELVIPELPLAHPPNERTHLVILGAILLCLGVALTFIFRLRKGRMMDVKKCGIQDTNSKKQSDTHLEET", "assay": "cell-based or functional assay", "remark": "another data set of the same source", "units": {"EC50 of PD-L1- based blockade assay for HCAbs": "nM"}}
{"binder": "B1", "EC50 of PD-L1- based blockade assay for HCAbs": 2.15}
{"binder": "B15", "EC50 of PD-L1- based blockade assay for HCAbs": 4.6}
{"binder": "B16", "EC50 of PD-L1- based blockade assay for HCAbs": 2.54}
{"binder": "B5", "EC50 of PD-L1- based blockade assay for HCAbs": 5}
{"binder": "B17", "EC50 of PD-L1- based blockade assay for HCAbs": 2.91}
{"binder": "B18", "EC50 of PD-L1- based blockade assay for HCAbs": 7.86}
{"binder": "B19", "EC50 of PD-L1- based blockade assay for HCAbs": 3.28}
{"binder": "B20", "EC50 of PD-L1- based blockade assay for HCAbs": 4.28}
{"binder": "B21", "EC50 of PD-L1- based blockade assay for HCAbs": 5.26}
{"binder": "B22", "EC50 of PD-L1- based blockade assay for HCAbs": 3.43}
{"binder": "B9", "EC50 of PD-L1- based blockade assay for HCAbs": 3.6}
{"binder": "B23", "EC50 of PD-L1- based blockade assay for HCAbs": 3.61}
{"binder": "B24", "EC50 of PD-L1- based blockade assay for HCAbs": 4.44}
{"binder": "B12", "EC50 of PD-L1- based blockade assay for HCAbs": 3.08}
{"binder": "B13", "EC50 of PD-L1- based blockade assay for HCAbs": 3.86}
{"target": "T2, recombinant human PD-L1 His protein (R&D System) (human, UniProt Q9NZQ7 partial chain)", "T2 construct": "Bought protein; not shown: His tag", "assay": "SPR, Biacore; affinity ranking of HCAbs, PD-L1/His printed as ligand", "units": {"kon": "M⁻¹ s⁻¹"}}
{"binder": "B13", "kon": 310000}
